Measured values from the supplement of paper PMC3334620.
Whole data set: some 33,000 sequences, median “E-score (-0.5 to 0.5)” near -0.056, cut for the highest 2% near 0.38. The list shows a part of the results.

These sequences were tested against Stb4 (UniProt P50104) (assay: PBM E-score (8-mer binding enrichment) (E-score (-0.5 to 0.5)); higher = stronger / more preferred TF binding; most listed sequences are background and not binding sites). Settings: protein concentration: 200 nM; construct: GST-DNA-binding domain.
Summary of the method: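 Universal all-10-mer Agilent arrays, double-stranded by primer extension on fresh or once-stripped slides, were probed with about 100-200 nM GST-tagged yeast transcription factors made by PURExpress. Fluorescent anti-GST detected bound protein, and masliner normalised the scans. E-scores from the Universal PBM Analysis Suite were given to each ungapped eight-base word pooled with its reverse complement.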

Sequence	PBM E-score
CGGGGAAC	0.268
CCGTACAG	0.135
ACGGCAGG	-0.0518
GTATATGA	0.132
ATTTACTA	0.0313
GGGTTCAA	-0.182
ATTTTTCG	0.139
CCGGATAA	0.452
GTTGGAGA	-0.156
CTCTCCCA	-0.22
GTTGTGAA	-0.189
ACGGGAAT	0.256
CTATTGTC	-0.116
TCCTCTCA	-0.256
GATGGAAA	-0.0119
ACCAAGTA	-0.247
GGGTGCGA	0.0773
TGTTCAAA	-0.0966
AGGTGTCA	0.0338
CCGAAAAA	0.434
AAAAATCA	-0.115
GTTCAGGA	-0.188
CCATACAA	-0.0118
CAAATTAC	0.064
GAGACGAC	0.183

Sequence	PBM E-score
CTTAGGAA	-0.00094
ACGATAGG	-0.0517
AGAGTAAC	0.0571
GACGTTAA	-0.0579
TCAACTAA	-0.0884
AACTTAGG	-0.168
GTCTGGCA	-0.0325
ACCGTAGT	0.145
TGTGTAAA	0.0503
AAACCCAA	-0.0654
ATGAATTC	0.0126
CAATCACA	-0.11
AACAATCA	-0.131
ATCATAGG	-0.0447
CACTTTCC	0.169
ACCCGAAG	0.424
GCGTTAGC	-0.127
AATTTCTA	-0.0282
GTGCCCCA	-0.228
AAACCCGG	0.327
TCAGACAA	-0.127
GGGCGATA	-0.073
CAGATAAA	-0.0389
ATGTCCTG	-0.0641
AAAATCAT	0.0295

Sequence	PBM E-score
AATGGAGT	-0.205
ACCTAGCT	-0.193
AGGTCTTC	-0.147
GATCTTTA	-0.0355
ATTGGATG	-0.103
GACCACCA	0.0102
GGCCATTA	-0.0595
CAGTTGGC	-0.241
ACGCGATA	-0.157
CACATACG	-0.212
CGTGTACC	0.0757
CGGTCTGA	0.152
AATATCGG	0.376
GTTGCCAA	-0.164
AATCGCAG	-0.152
ACTATTAA	-0.147
AGAAATGC	-0.071
ATTCTGGA	-0.0422
CGAGGAAC	0.234
AAGCAGCA	-0.253
ATTAGTCA	-0.051
CAAAACAA	-0.416
GACATTCC	0.0197
AGGCGCTA	-0.118
CACTCATG	-0.242

Sequence	PBM E-score
CTTGCACC	-0.0465
ACGCACAG	-0.12
CCGCCCAC	0.175
AGGCTAAA	-0.163
CACCGTTA	-0.195
AATGATTA	-0.0909
AAGGATCC	0.12
GGCGACAC	0.125
CGTCTCGA	-0.0363
CCGGCAAG	0.281
GTCTATGA	-0.163
AAATATTG	0.176
AGTTCATC	-0.107
GGCGGGTA	0.271
AAGGATGT	-0.113
AACTATAC	-0.0848
AACGTTAC	-0.0209
GAAGATCA	0.074
GCGATGCA	-0.154
GTCGCGAA	-0.0989
ACCGACAT	0.183
ACCAAACC	-0.0527
CGAACAGA	0.173
AAGATCAC	-0.0333
CCAGGCTC	-0.0779

Sequence	PBM E-score
GCCAGGTA	-0.117
TATCCGAA	0.493
GAGAGCCA	-0.187
CCGGGTTC	0.344
CGAGGATC	0.125
AAGGGCTA	-0.138
GGGTGACC	0.0752
CCTGGGAG	-0.132
ACTTGACG	-0.181
CTTTGCGA	0.0006
AAGGCCTA	-0.225
ACCCTCTG	-0.101
CGTGTTAG	0.0675
GAAAGGTC	0.0718
GCATGTTA	-0.0344
CATTTACA	-0.142
CGCGCTTA	-0.0252
CTAGTTTA	-0.336
AGGACGAG	-0.249
AAAGTGGA	-0.0498
ACTCATAT	-0.0576
GAGAGGCC	0.0272
AATTGTGT	-0.149
GGTTGATA	0.145
AGGAAGTG	-0.0171

Sequence	PBM E-score
GTACGTGA	-0.0671
ATGAAATG	-0.178
GCGTCTTA	-0.123
GGCTGAAC	0.0897
CCGACACC	0.369
ACGACGTA	-0.114
AACTACCT	0.0233
ATACGGTG	-0.169
CCGGTAAC	0.293
GCGCAACA	-0.153
ATCAACAA	-0.0984
ACGATGCC	-0.0705
ATAAGTTG	-0.0962
CTAAAGCC	-0.16
TTCCCCAA	-0.219
ACTATACT	-0.197
CAAGTTAA	-0.174
CCCATTTC	-0.0665
AAATAGCT	-0.0177
GTGCGCTA	-0.244
CTGTTCAA	-0.068
CACGCTTC	0.0187
CTATCATA	0.0567
AAACGACT	-0.128
TATTTTGA	-0.151

Sequence	PBM E-score
GCCATTTA	-0.162
CAGCATCA	-0.24
ATGGGAAT	-0.159
GCATGCCA	-0.143
TCGTCCAA	-0.164
CAAAGGCA	-0.0391
TAGACAAA	-0.302
AATGTTCG	0.14
CCAGGCCA	-0.175
CCGTCCCC	0.176
ATACTTTA	-0.135
ATCTCTAG	-0.137
CTGCATAC	-0.0132
CGGTACCC	0.259
CCCAGCAG	-0.0831
AACTGGCA	-0.0695
CCGCATGC	0.167
AACTCAAT	-0.00367
GCGAATAC	-0.125
AACAATGG	-0.189
CAGGACCG	-0.049
CTACAGGA	-0.2
CGGGCTCC	0.1
AAATGATC	0.0559
CTTATCAC	-0.277

Sequence	PBM E-score
GGATGCGA	-0.00382
ACCCTATA	-0.346
ATTCCATC	0.0842
AGGAAACT	-0.0937
CGGGCGGA	0.348
AAAGATAA	-0.0473
GGCCTTAC	-0.0692
CTCACGTC	0.0256
GAAACGAA	0.0595
AAAATATG	-0.0124
CGGGACTA	0.274
CCCAATTA	-0.141
GAAGTGAC	0.138
CCACATGA	-0.194
CGAAGGGC	0.0578
CGTGTGTC	0.0273
ATGCTTCG	0.178
ACGTTTAG	-0.278
GCCAATTA	-0.0619
ACAGGATC	-0.176
GGGCTTCA	-0.0795
CAAACGCG	0.0177
ATAGTCAG	-0.206
AACGCGAC	-0.151
ATTACCTC	0.0335

Sequence	PBM E-score
GCGTTAGA	-0.031
AATTAACG	0.0149
ATGCAAAG	-0.0375
CGACCTCG	-0.0175
ACAATAAT	0.00727
ACTGAAGC	-0.188
CACTCCTG	-0.189
TCACGAGA	-0.256
GCACCAGA	-0.165
CCGCTTTC	0.186
AGCCGCAA	0.0737
ACCCGGAA	0.433
CAAAATTC	0.165
CTGAAGGC	-0.204
TATTTAGA	-0.129
GTCTAGAA	0.0687
CATCCCCG	0.259
ATGATAGC	0.0247
AAGAATTA	-0.0143
